Results on three molecules are retold here after article PMC6400558 (2019).

Amino acid sequences for entries named in this document (tags omitted).
UniProt P61163: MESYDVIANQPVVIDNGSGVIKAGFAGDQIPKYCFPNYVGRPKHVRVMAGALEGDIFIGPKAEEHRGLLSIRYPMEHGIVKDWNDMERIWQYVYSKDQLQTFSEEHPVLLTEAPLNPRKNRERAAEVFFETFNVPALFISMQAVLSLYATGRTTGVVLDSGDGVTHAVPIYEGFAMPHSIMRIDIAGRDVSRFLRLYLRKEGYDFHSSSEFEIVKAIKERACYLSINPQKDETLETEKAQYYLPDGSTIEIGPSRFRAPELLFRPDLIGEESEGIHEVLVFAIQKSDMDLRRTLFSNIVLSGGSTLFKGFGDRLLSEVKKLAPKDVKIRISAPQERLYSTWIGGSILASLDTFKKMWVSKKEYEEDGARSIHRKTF
UniProt Q14203: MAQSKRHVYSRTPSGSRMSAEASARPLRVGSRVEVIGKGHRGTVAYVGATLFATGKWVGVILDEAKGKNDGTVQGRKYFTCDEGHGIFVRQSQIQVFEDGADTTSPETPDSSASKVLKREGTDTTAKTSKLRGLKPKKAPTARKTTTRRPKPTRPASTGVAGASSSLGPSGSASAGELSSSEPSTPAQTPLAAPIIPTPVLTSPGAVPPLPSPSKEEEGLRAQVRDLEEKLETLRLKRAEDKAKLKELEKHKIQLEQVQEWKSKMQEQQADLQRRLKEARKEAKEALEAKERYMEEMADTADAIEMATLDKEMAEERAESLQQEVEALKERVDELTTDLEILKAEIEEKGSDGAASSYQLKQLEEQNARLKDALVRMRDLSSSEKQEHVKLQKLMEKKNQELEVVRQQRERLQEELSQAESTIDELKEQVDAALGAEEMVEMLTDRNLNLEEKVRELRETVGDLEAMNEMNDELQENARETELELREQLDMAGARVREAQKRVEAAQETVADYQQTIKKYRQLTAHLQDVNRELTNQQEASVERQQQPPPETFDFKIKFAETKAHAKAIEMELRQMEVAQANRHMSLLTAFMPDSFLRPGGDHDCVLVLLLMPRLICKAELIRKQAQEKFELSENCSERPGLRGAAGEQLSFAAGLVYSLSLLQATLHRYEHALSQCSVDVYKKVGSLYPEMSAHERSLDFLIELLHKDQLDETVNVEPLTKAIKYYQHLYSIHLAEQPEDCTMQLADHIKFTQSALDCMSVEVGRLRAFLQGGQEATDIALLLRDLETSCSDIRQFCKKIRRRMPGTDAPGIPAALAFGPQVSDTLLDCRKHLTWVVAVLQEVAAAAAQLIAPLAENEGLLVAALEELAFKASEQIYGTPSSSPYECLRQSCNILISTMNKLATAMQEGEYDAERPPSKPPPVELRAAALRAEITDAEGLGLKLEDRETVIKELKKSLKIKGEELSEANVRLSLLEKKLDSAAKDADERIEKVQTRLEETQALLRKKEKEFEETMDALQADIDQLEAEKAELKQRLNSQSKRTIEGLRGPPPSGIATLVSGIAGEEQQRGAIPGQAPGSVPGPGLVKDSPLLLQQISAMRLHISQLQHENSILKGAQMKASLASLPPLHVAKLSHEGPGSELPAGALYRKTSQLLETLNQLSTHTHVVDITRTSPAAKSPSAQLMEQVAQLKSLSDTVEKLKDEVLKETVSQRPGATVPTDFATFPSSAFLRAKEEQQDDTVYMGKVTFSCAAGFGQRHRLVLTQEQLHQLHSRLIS
UniProt Q13561: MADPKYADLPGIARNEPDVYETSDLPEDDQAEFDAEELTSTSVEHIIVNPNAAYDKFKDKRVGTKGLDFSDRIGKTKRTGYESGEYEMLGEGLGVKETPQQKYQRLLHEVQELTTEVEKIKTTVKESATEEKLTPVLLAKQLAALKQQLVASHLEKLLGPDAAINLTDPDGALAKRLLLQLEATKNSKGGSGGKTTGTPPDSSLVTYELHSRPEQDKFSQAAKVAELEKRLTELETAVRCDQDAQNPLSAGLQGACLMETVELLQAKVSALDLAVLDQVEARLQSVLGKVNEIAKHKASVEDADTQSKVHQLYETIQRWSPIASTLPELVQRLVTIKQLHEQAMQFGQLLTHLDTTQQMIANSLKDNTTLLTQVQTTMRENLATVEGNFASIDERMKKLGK

Substitutions are numbered along the chain they refer to. These are yes or no findings as the source states them, for the method shown. In cells and extracts the contact can be indirect. Some binding calls cover weakened binding; strength is not graded here. For part of these data: Sequences can lack the tags named with a protein.

The target of test [1] is Arp1 (human (endogenous in HEK293T)) (UniProt P61163). The experiment in a line: co-IP; endogenous proteins; HEK293T lysates in TAP lysis buffer (20 mM Tris-HCl pH 7.4, 150 mM NaCl, 0.5% NP-40) with antibody on protein-A/G beads, 3 h, 4°C; cells asynchronous or synchronized (G2, prometaphase, metaphase/anaphase, cytokinesis), with control or other siRNAs or Hook2 plasmids; immunoblot. A general note: In western blotting, separated proteins are transferred to a membrane and probed.

In test [2] the target is p150^glued (human (endogenous in HEK293T)) (UniProt Q14203). The test is described as above.
In test [3] the target is p50/dynamitin (human (endogenous in HEK293T)) (UniProt Q13561). Described as above.
The target in test [4] is T1, mitotic kinesin-like protein 1 (MKLP1) (human (endogenous in HEK293T)) (UniProt Q02241).
T1 sequence: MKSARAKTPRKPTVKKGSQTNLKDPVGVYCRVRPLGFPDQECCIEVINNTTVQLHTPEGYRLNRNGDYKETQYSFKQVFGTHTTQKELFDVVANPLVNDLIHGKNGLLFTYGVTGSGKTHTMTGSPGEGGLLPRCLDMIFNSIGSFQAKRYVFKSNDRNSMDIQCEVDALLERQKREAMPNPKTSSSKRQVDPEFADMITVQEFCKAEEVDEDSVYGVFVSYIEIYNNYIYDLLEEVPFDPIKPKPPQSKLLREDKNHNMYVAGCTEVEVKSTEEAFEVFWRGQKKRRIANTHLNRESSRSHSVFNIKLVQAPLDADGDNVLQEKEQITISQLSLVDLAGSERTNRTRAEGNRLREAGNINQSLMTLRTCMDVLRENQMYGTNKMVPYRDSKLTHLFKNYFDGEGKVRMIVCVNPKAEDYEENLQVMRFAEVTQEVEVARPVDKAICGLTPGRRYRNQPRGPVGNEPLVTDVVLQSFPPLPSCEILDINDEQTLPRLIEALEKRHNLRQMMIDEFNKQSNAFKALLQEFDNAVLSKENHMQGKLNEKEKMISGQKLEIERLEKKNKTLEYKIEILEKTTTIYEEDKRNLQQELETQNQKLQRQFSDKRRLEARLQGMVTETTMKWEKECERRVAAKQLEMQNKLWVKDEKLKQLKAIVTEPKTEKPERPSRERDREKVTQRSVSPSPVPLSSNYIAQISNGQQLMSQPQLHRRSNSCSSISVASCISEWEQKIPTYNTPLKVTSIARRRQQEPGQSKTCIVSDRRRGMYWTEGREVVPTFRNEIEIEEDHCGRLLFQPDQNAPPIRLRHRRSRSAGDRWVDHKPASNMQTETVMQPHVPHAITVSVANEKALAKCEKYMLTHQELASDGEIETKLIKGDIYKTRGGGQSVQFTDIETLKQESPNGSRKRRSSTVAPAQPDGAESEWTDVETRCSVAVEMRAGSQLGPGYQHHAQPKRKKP
The test is described as above.

In test [5] the target is T2, MBP-tagged Hook2 N427 Q143A (human) (UniProt Q96ED9).
T2 sequence: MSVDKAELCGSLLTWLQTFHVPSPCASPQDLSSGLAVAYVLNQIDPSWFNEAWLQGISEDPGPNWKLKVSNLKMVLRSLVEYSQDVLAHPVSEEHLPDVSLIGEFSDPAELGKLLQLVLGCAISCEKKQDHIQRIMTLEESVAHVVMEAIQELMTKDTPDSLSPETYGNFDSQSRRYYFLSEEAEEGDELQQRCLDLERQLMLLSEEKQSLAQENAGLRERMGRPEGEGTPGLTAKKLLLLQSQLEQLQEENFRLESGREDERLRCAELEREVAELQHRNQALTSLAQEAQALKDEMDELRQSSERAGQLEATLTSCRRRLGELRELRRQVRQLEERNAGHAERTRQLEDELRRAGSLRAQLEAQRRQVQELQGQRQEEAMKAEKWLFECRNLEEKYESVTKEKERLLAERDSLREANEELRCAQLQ
The experiment in a line: pull-down; MBP-tagged Hook2 N427 (WT or mutants) on amylose beads incubated with whole-cell lysate of HEK293T cells (asynchronous, or harvested in cytokinesis for MKLP1), 4°C, 3 h, 20 mM Hepes pH 7.4, 350 mM NaCl, 1 mM DTT, 2 mM MgCl2, 0.1% Triton X-100, 2 mg/ml BSA; immunoblot; only the target purified.

Test [6] deals with T3, MBP-tagged Hook2 N427 I150A (human) (UniProt Q96ED9).
T3 sequence: T2 sequence with A143Q, I150A
The test is described as above.

B1: Hook2 (endogenous) (protein, UniProt Q96ED9 1-719)
chain: MSVDKAELCGSLLTWLQTFHVPSPCASPQDLSSGLAVAYVLNQIDPSWFNEAWLQGISEDPGPNWKLKVSNLKMVLRSLVEYSQDVLAHPVSEEHLPDVSLIGEFSDPAELGKLLQLVLGCAISCEKKQDHIQRIMTLEESVQHVVMEAIQELMTKDTPDSLSPETYGNFDSQSRRYYFLSEEAEEGDELQQRCLDLERQLMLLSEEKQSLAQENAGLRERMGRPEGEGTPGLTAKKLLLLQSQLEQLQEENFRLESGREDERLRCAELEREVAELQHRNQALTSLAQEAQALKDEMDELRQSSERAGQLEATLTSCRRRLGELRELRRQVRQLEERNAGHAERTRQLEDELRRAGSLRAQLEAQRRQVQELQGQRQEEAMKAEKWLFECRNLEEKYESVTKEKERLLAERDSLREANEELRCAQLQPRGLTQADPSLDPTSTPVDNLAAEILPAELRETLLRLQLENKRLCRQEAADRERQEELQRHLEDANRARHGLETQHRLNQQQLSELRAQVEDLQKALQEQGGKTEDAISILLKRKLEEHLQKLHEADLELQRKREYIEELEPPTDSSTARRIEELQHNLQKKDADLRAMEERYRRYVDKARMVMQTMEPKQRPAAGAPPELHSLRTQLRERDVRIRHLEMDFEKSRSQREQEEKLLISAWYNMGMALQQRAGEERAPAHAQSFLAQQRLATNSRRGPLGRLASLNLRPTDKH
As to B1, the binding entry in test [1], in test [2] and in test [3] was “binds” each time.

B2: Hook3 (endogenous) (protein, UniProt Q86VS8 1-718)
chain: MFSVESLERAELCESLLTWIQTFNVDAPCQTVEDLTNGVVMAQVLQKIDPAYFDENWLNRIKTEVGDNWRLKISNLKKILKGILDYNHEILGQQINDFTLPDVNLIGEHSDAAELGRMLQLILGCAVNCEQKQEYIQAIMMMEESVQHVVMTAIQELMSKESPVSAGNDAYVDLDRQLKKTTEELNEALSAKEEIAQRCHELDMQVAALQEEKSSLLAENQVLMERLNQSDSIEDPNSPAGRRHLQLQTQLEQLQEETFRLEAAKDDYRIRCEELEKEISELRQQNDELTTLADEAQSLKDEIDVLRHSSDKVSKLEGQVESYKKKLEDLGDLRRQVKLLEEKNTMYMQNTVSLEEELRKANAARSQLETYKRQVVELQNRLSEESKKADKLDFEYKRLKEKVDSLQKEKDRLRTERDSLKETIEELRCVQAQEGQLTTQGLMPLGSQESSDSLAAEIVTPEIREKLIRLQHENKMLKLNQEGSDNEKIALLQSLLDDANLRKNELETENRLVNQRLLEVQSQVEELQKSLQDQGSKAEDSVLLKKKLEEHLEKLHEANNELQKKRAIIEDLEPRFNNSSLKIEELQEALRKKEEEMKQMEERYKKYLEKAKSVIRTLDPKQNQGAAPEIQALKNQLQERDRLFHSLEKEYEKTKSQREMEEKYIVSAWYNMGMTLHKKAAEDRLASTGSGQSFLARQRQATSSRRSYPGHVQPATAR
On to B2, for which, in test [4], the binding result is recorded as “no binding”.

B3: mitotic kinesin-like protein 1 (MKLP1) (protein, UniProt Q02241 1-960)
chain: T1 sequence
Turning to B3, the binding entry in test [5] and in test [6] was “no binding” in each case.
